From PubChem BioAssay (Tox21)
The shares of active, inactive and inconclusive entries below differ from those in the screen. For some of these results: Where the call is inconclusive, the potency comes from a doubtful curve fit. Calls of active or inactive are those of the source. Unless noted, the call rests on the fitted dose curve; in most records, active means well fitted curve in the direction sought with a large enough effect in the repeat runs; inconclusive means weak or mixed curves; inactive means no such curve, though single readings can be large; an effect the other way counts as inactive or inconclusive.

Assays:
[1] = molecular target: Peroxisome proliferator-activated receptor gamma (Homo sapiens) (UniProt P37231); assay: qHTS assay to identify small molecule antagonists of the peroxisome proliferator-activated receptor gamma (PPARg) signaling pathway (AID 743191; calls by dose curve; further: on the % scale 0 is the no-effect control and ±100 the full control effect; nearly all actives have a fitted effect of over 30% in size); conditions: HEK293H PPARg-UAS-bla, beta-lactamase ratio, antagonist, 17 h; ratio activity, negative = inhibition: at 62.6 µM (top of the series) unless noted
Summary of the method: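 GeneBLAzer PPARg UAS-bla HEK293H cells, 5 h post-plating, exposed to compounds 17 h at 37C. LiveBLAzer B/G FRET substrate added for 1 h at room temperature; beta-lactamase reporter read by fluorescence intensity.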

[2] = qHTS assay for small molecule agonists of the antioxidant response element (ARE) signaling pathway (AID 743202; active means well fitted activation curve with a large enough effect in the signal ratio in the repeat runs, not every such curve was filed as active; inconclusive means weak or mixed curves, or effect the other way; inactive means no such curve, though single readings can be large or run the other way; the % refers to the signal ratio; further: on the % scale 0 is the no-effect control and ±100 the full control effect); conditions: HepG2 ARE-bla reporter, beta-lactamase FRET, 16 h; activation: at 73.3 µM (top of the series) unless noted
Summary of the method: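 HepG2 ARE-bla reporter line, 2,000 cells/well; 5 h preincubation 37 C/5% CO2; compound (DMSO) 16 h 37 C; B/G FRET substrate 2 h RT; fluorescence intensity.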

[3] = molecular target: Retinoic acid receptor RXR-alpha (Homo sapiens) (UniProt P19793); assay: qHTS assay to identify small molecule agonists of the RXR signaling pathway (AID 1159527; calls by dose curve; further: nearly all actives have a fitted effect of over 35% in size; further: potency means the concentration at half of the fitted maximal effect); conditions: HEK293T RXRa-UAS-bla, beta-lactamase ratio, 16 h; activation: at 76.8 µM (top of the series) unless noted
Summary of the method: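 Agonist mode; 9-cis retinoic acid positive control. HEK 293T UAS-bla reporter cells, 2% charcoal-stripped FBS, 16 hr compound exposure at 37 C/5% CO2. LiveBLAzer B/G FRET substrate 2 hr RT; ex 405, em 460/530 nm.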

[4] = molecular target: Progesterone receptor (Homo sapiens) (UniProt P06401); assay: qHTS assay to identify small molecule antagonists of the progesterone receptor (PR) signaling pathway (AID 1346795; active means well fitted inhibition curve with a large enough effect in the signal ratio in the repeat runs, not every such curve was filed as active; inconclusive means weak or mixed curves; the % refers to the signal ratio; further: potency means the concentration at half of the fitted maximal effect); conditions: PR-UAS-bla HEK293T, beta-lactamase FRET ratio, 16 h; activity change, negative = inhibition: at 92.4 µM (top of the series) unless noted
Summary of the method: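 Beta-lactamase reporter, HEK293T PR-UAS-bla line; 2% charcoal-stripped FBS; 6 hr pre-incubation, 37C/5% CO2. Compound + R5020 1 nM final, 16 hr. LiveBLAzer B/G FRET substrate, 2 hr RT; fluorescence intensity read.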

[5] = molecular target: Cytochrome P450 2C9 (Homo sapiens) (UniProt P11712); assay: Cytochrome P450 Family 2 Subfamily C Member 9 (CYP2C9) small molecule antagonists: luciferase reporter qHTS assay (AID 1671198); further: nearly all actives have a fitted effect of over 50% in size; further: potency means the concentration at half of the fitted maximal effect
Summary of the method: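 P450-Glo proluciferin substrate with CYP2C9 enzyme; 10 min RT preincubation, then NADPH regeneration 1 h at 37C; luciferin detection reagent 20 min RT, luminescence in relative luminescence units.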

[6] = qHTS assay for small molecule disruptors of the mitochondrial membrane potential (AID 720635); conditions: HepG2 mitochondrial membrane potential, Mito-MPS dye ratio; ratio activity, negative = MMP loss: at 83.2 µM (top of the series) unless noted; further: on the % scale 0 is the no-effect control and ±100 the full control effect
Summary of the method: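 HepG2 cells exposed to compound 1 hr at 37C, then Mito-MPS dye 30 min. Ratio read of aggregate (540/590 nm) versus monomer (490/535 nm) fluorescence.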

[7] = qHTS assay for identifying genotoxic compounds that show differential cytotoxicity against isogenic chicken DT40 cell lines with known DNA damage response pathways - Rev3 mutant cell line (AID 743014); conditions: chicken DT40 Rev3-/- viability, CellTiter-Glo, 40 h; activity, negative = cytotoxicity: at 68.4 µM (top of the series) unless noted; further: nearly all actives have a fitted effect of over 55% in size; further: potency means the concentration at half of the fitted maximal effect
[8] = molecular target: Estrogen receptor (Homo sapiens) (UniProt P03372); assay: qHTS assay to identify small molecule agonists of the estrogen receptor alpha (ER-alpha) signaling pathway using the BG1 cell line (AID 743079); conditions: BG1Luc4E2 cells, ERE-luciferase agonist, 22 h; activation: at 70.3 µM (top of the series) unless noted; further: on the % scale 0 is the no-effect control and ±100 the full control effect; nearly all actives have a fitted effect of over 20% in size
[9] = molecular target: Peroxisome proliferator-activated receptor delta (Homo sapiens) (UniProt Q03181); assay: qHTS assay to identify small molecule antagonists of the peroxisome proliferator-activated receptor delta (PPARd) signaling pathway (AID 743215; active means well fitted inhibition curve with a large enough effect in the signal ratio in the repeat runs, not every such curve was filed as active; inconclusive means weak or mixed curves, or effect the other way; inactive means no such curve, though single readings can be large or run the other way; the % refers to the signal ratio;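 further: cells stimulated with agonist L165041 at 300 nM final during compound exposure; on the % scale 0 is the no-effect control and ±100 the full control effect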); conditions: HEK293H PPARd-UAS-bla, beta-lactamase FRET ratio, antagonist, 17 h; ratio activity, negative = inhibition: at 62 µM (top of the series) unless noted
Summary of the method: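 HEK293H GeneBLAzer PPARd UAS-bla reporter cells; cpd + L165041 300 nM final, 17 h 37 C; LiveBLAzer B/G FRET substrate 2 h RT; fluorescence intensity read-out. Antagonist mode.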

[10] = molecular target: Vitamin D3 receptor (Homo sapiens) (UniProt P11473); assay: qHTS assay to identify small molecule antagonists of the vitamin D receptor (VDR) signaling pathway (AID 743223; active means well fitted inhibition curve with a large enough effect in the signal ratio in the repeat runs, not every such curve was filed as active; inconclusive means weak or mixed curves, or effect the other way; inactive means no such curve, though single readings can be large or run the other way; the % refers to the signal ratio; further: on the % scale 0 is the no-effect control and ±100 the full control effect); conditions: VDR-UAS-bla HEK293T, beta-lactamase FRET ratio, 16 h; activity change, negative = inhibition: at 61 µM (top of the series) unless noted
Summary of the method: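 Beta-lactamase reporter read-out: FRET substrate fluorescence after 2 h at room temperature, following 16 h exposure of VDR-bla cells to test compound plus 3 nM (final) 1alpha,25-dihydroxyvitamin D3 agonist at 37C.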

[11] = molecular target: Thyrotropin receptor (Homo sapiens) (UniProt P16473); assay: qHTS assay to identify small molecule agonists of the thyroid stimulating hormone receptor (TSHR) signaling pathway (AID 1224843; calls by dose curve; further: on the % scale 0 is the no-effect control and ±100 the full control effect; nearly all actives have a fitted effect of over 45% in size); conditions: TSHR-HEK293 cells, cAMP HTRF, agonist mode, 30 min; activation: at 92.4 µM (top of the series) unless noted
Summary of the method: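 HEK293/TSHR, 800 cells/well; cpd 30 min RT; add cAMP-d2 + anti-cAMP-cryptate, 1 h RT; fluorescence read on plate reader. 15-pt titration, n=3.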

[12] = qHTS assay for small molecule agonists of the p53 signaling pathway (AID 651631; calls by dose curve; further: on the % scale 0 is the no-effect control and ±100 the full control effect; nearly all actives have a fitted effect of over 15% in size); conditions: HCT-116 p53RE-bla reporter, beta-lactamase FRET ratio, 16 h; activation: at 73.3 µM (top of the series) unless noted
Summary of the method: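 p53RE-bla HCT-116 cells; compounds 16 h, 37 °C; LiveBLAzer B/G FRET substrate 2 h RT; fluorescence intensity read-out, qHTS format.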

[13] = molecular target: Glucocorticoid receptor (Homo sapiens) (UniProt P04150); assay: qHTS assay to identify small molecule antagonists of the glucocorticoid receptor (GR) signaling pathway (AID 720692; active means well fitted inhibition curve with a large enough effect in the signal ratio in the repeat runs, not every such curve was filed as active; inconclusive means weak or mixed curves, or effect the other way; inactive means no such curve, though single readings can be large or run the other way; the % refers to the signal ratio; further: on the % scale 0 is the no-effect control and ±100 the full control effect); conditions: GR-bla HeLa, beta-lactamase FRET ratio, dexamethasone-stimulated, 18 h; activity change, negative = inhibition: at 58.5 µM (top of the series) unless noted
Summary of the method: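 Read-out: beta-lactamase FRET substrate fluorescence, 2 h at room temperature, in HeLa cells stably carrying a GRE-driven bla reporter. Compounds were co-incubated with 5 nM dexamethasone agonist (final) for 18 h at 37 C.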

[14] = molecular target: Cytochrome P450 1A2 (Homo sapiens) (UniProt P05177); assay: Cytochrome P450 Family 1 Subfamily A Member 2 (CYP1A2) small molecule antagonists: luciferase reporter qHTS assay (AID 1671199); further: nearly all actives have a fitted effect of over 50% in size; further: potency means the concentration at half of the fitted maximal effect
Summary of the method: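 Luminescence readout (relative luminescence units) after luciferin detection reagent, 20 min RT. Preceded by 1 h room-temperature CYP1A2 reaction with NADPH regeneration solution following 10 min compound preincubation with enzyme and proluciferin substrate. Furafylline positive control.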

[15] = qHTS assay for identifying genotoxic compounds that show differential cytotoxicity against isogenic chicken DT40 cell lines with known DNA damage response pathways - wild type cell line (AID 743012); conditions: DT40 wild type chicken cells viability, CellTiter-Glo, 40 h; activity change, negative = cytotoxicity: at 68.4 µM (top of the series) unless noted; further: nearly all actives have a fitted effect of over 60% in size; further: potency means the concentration at half of the fitted maximal effect
Summary of the method: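 CellTiter-Glo luminescence readout of viability in wild type DT40 cells after 40 h compound exposure at 37 C/5% CO2; 300 cells/well; reagent incubated 30 min at room temperature before reading.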

[16] = molecular target: Estrogen receptor beta (Homo sapiens) (UniProt Q92731); assay: qHTS assay to identify small molecule antagonists of the estrogen receptor beta (ER-beta) signaling pathway (AID 1259378; active means well fitted inhibition curve with a large enough effect in the signal ratio in the repeat runs, not every such curve was filed as active; inconclusive means weak or mixed curves, or effect the other way; inactive means no such curve, though single readings can be large or run the other way; the % refers to the signal ratio; further: on the % scale 0 is the no-effect control and ±100 the full control effect); conditions: ER-beta-UAS-bla HEK293T, beta-lactamase FRET ratio, 16 h; activity, negative = inhibition: at 92.4 µM (top of the series) unless noted
Summary of the method: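 ER-beta-UAS-bla HEK293T cells in 2% charcoal-stripped FBS medium treated with compound plus 1nM final 17-beta-estradiol for 16 hr at 37C. Beta-lactamase reporter read by FRET substrate fluorescence after 2 hours at room temperature.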

[17] = qHTS assay to identify small molecule agonists of the progesterone receptor (PR) signaling pathway - cell viability counter screen (AID 1346799; calls by dose curve; further: nearly all actives have a fitted effect of over 45% in size; further: potency means the concentration at half of the fitted maximal effect)
Summary of the method: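 HEK293T PR-UAS-bla, 3,000 cells/well, 2% charcoal-stripped FBS; 6 h settle, compound 16 h at 37C/5% CO2; LiveBLAzer 2 h RT, then CellTiter-Glo 30 min RT, luminescence read.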

[18] = molecular target: Cytochrome P450 2C19 (Homo sapiens) (UniProt P33261); assay: Cytochrome P450 Family 2 Subfamily C Member 19 (CYP2C19) small molecule antagonists: luciferase reporter qHTS assay (AID 1671197); further: potency means the concentration at half of the fitted maximal effect; nearly all actives have a fitted effect of over 65% in size
Summary of the method: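 P450-Glo CYP2C19 system: enzyme-substrate mix with compound 10 min at room temperature, then NADPH regeneration solution, 1 h at 37C. Proluciferin-to-luciferin conversion detected by luminescence after 20 min with detection reagent; ketoconazole as positive control.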

[19] = qHTS assay to identify small molecule agonists of the farnesoid-X-receptor (FXR) signaling pathway - cell viability counter screen (AID 743218); conditions: FXR-bla HEK293T viability, CellTiter-Glo luminescence, 16 h; viability change, negative = cytotoxic: at 62.6 µM (top of the series) unless noted; further: potency means the concentration at half of the fitted maximal effect; nearly all actives have a fitted effect of over 45% in size
Summary of the method: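 Luminescence from CellTiter-Glo, read after 30 min at RT, reports viability of GeneBLAzer FXR-UAS-bla HEK 293T cells treated 16 h with compounds in the wells used for the beta-lactamase reporter.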
Tags describe the fitted curve by direction and shape or compound fluorescence and quenching.

Chain of UniProt P11473 (P11473 whole entry, looked up): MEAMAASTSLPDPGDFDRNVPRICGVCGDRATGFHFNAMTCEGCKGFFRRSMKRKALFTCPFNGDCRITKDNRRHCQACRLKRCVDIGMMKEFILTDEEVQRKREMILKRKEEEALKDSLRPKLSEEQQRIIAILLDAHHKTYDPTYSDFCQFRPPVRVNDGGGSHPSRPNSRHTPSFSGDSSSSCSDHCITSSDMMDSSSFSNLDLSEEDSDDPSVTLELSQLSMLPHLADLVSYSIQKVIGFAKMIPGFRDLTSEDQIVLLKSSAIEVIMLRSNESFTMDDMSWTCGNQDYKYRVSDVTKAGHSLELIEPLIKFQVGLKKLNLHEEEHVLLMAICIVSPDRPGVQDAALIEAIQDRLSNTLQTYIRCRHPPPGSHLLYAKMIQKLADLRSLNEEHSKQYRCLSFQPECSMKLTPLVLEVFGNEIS
Chain of UniProt Q92731 (Q92731 whole entry, looked up): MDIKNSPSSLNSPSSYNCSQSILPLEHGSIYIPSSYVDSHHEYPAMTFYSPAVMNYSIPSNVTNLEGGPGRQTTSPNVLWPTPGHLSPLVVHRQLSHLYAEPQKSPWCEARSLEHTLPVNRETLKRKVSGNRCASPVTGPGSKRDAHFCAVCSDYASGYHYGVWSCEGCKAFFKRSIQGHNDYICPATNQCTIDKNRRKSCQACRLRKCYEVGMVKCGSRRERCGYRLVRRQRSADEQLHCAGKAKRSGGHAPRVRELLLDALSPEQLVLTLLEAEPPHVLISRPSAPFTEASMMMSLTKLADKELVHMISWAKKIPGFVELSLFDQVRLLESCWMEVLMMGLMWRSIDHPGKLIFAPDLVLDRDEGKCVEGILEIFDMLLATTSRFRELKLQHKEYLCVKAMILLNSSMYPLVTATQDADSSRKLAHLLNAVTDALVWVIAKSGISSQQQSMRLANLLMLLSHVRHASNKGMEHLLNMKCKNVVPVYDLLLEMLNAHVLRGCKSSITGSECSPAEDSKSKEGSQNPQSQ
Chain of UniProt P06401 (P06401 whole entry, looked up): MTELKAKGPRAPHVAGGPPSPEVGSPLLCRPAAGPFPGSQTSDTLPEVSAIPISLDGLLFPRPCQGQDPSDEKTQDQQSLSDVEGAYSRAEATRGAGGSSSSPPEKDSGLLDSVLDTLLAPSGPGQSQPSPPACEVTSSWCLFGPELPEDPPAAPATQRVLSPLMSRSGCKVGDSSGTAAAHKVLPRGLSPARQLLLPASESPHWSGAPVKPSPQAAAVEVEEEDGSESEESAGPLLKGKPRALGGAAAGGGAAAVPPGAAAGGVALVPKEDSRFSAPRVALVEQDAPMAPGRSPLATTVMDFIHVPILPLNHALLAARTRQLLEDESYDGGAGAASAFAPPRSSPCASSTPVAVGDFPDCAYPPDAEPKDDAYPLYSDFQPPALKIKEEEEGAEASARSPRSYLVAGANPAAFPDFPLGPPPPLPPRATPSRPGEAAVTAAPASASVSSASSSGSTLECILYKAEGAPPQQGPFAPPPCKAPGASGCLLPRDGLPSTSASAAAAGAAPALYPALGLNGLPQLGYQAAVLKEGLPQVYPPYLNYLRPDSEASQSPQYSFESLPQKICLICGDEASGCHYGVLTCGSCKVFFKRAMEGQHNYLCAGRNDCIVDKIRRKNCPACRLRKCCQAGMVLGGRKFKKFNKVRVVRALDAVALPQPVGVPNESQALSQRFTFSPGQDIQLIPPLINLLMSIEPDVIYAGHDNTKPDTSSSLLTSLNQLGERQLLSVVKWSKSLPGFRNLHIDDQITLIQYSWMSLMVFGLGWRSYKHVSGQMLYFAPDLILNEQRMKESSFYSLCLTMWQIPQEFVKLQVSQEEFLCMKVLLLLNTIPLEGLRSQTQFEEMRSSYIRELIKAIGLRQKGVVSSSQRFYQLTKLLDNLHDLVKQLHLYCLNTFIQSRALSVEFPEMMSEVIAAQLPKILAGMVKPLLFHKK
Chain of UniProt P19793 (P19793 whole entry, looked up): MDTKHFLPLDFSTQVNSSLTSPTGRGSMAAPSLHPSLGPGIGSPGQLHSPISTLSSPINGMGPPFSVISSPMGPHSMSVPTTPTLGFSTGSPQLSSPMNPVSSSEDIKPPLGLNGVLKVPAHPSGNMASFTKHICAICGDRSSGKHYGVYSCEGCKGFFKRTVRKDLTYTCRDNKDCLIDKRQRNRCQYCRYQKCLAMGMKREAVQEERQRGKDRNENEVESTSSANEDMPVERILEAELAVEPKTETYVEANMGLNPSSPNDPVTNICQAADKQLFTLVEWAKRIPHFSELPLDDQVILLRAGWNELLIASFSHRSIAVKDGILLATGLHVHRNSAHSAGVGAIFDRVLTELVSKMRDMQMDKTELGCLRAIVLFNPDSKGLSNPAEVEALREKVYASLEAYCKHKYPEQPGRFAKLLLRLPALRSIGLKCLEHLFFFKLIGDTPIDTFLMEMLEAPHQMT
Chain of UniProt P05177 (P05177 whole entry, looked up): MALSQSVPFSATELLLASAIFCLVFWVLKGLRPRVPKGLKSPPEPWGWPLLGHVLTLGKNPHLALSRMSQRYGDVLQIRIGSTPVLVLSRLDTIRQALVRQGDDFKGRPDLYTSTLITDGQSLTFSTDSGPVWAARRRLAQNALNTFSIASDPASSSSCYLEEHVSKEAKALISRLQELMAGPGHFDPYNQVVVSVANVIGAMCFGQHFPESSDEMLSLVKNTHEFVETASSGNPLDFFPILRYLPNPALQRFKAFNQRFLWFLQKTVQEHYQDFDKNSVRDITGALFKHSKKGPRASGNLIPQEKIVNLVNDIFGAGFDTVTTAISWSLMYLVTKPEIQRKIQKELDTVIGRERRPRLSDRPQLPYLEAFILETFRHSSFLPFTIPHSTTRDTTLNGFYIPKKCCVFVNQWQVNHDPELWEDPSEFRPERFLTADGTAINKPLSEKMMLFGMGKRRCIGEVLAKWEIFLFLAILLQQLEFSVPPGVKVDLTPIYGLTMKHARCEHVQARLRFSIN
Chain of UniProt P37231 (P37231 whole entry, looked up): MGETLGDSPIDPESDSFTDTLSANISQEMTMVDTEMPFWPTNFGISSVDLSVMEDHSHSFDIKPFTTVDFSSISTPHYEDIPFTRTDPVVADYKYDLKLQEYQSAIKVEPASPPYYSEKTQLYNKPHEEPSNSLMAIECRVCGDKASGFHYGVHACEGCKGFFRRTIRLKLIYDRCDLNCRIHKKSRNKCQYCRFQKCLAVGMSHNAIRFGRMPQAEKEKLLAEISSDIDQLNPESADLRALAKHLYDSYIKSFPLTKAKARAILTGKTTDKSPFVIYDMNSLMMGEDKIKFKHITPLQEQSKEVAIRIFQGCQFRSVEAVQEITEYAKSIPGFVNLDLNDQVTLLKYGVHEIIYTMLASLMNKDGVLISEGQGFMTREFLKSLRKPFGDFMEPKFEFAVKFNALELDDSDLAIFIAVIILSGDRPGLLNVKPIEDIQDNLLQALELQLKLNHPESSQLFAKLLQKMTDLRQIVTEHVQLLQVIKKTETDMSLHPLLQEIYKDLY
Chain of UniProt P04150 (P04150 whole entry, looked up): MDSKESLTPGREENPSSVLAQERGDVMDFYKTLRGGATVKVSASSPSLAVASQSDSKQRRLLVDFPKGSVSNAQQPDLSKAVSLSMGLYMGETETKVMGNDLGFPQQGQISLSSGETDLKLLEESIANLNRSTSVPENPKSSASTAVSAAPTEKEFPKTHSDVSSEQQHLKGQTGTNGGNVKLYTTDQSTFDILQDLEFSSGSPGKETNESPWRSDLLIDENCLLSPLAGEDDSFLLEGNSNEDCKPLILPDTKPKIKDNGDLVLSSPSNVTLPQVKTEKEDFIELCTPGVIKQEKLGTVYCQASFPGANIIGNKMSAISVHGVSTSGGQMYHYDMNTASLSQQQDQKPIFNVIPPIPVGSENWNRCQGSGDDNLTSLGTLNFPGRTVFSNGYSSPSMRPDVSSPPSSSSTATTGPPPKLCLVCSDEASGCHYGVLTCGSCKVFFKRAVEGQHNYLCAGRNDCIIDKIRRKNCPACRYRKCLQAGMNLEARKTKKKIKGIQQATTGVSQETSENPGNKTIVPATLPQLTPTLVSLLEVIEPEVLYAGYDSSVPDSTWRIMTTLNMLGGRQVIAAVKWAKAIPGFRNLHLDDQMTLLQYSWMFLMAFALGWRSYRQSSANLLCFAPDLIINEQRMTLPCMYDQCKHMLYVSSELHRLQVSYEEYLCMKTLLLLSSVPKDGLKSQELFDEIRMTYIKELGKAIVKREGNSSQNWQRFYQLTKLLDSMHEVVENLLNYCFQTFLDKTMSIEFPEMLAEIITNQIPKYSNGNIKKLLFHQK
Chain of UniProt P33261 (P33261 whole entry, looked up): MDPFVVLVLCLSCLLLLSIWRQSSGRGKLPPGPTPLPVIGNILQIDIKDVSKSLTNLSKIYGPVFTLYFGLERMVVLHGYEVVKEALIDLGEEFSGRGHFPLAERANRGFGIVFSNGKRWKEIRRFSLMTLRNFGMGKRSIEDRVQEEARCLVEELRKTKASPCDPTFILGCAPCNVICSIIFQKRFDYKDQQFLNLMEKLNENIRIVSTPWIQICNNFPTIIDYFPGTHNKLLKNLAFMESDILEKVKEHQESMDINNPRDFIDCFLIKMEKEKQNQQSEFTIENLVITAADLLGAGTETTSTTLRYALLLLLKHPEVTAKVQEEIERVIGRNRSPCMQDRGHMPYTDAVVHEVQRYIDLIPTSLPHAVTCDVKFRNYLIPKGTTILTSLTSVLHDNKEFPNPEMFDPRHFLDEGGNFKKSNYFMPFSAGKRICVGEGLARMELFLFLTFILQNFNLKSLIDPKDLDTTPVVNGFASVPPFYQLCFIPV

CC(=O)S[C@H](C(=O)N[C@H]1Cc2ccccc2[C@H]2CCC[C@@H](C(=O)O)N2C1=O)C(C)C
inactive: Potency [2]
inconclusive: ratio activity, negative = inhibition [1] -15.2% | Potency [3] 24.5 µM [activator, partial curve, poor fit] | activity change, negative = inhibition [4] 0.846% | Potency [5] 79.6 µM [inhibitor, single point]

CCCOC(=O)CCCCC(=O)OCCC
inactive: Potency [8] | Potency [2] | Potency [3]
inconclusive: ratio activity, negative = MMP loss [6] 10.8% | Potency [7] 17.2 µM [cytotoxic, partial curve, poor fit] | ratio activity, negative = inhibition [1] 6.83% | ratio activity, negative = inhibition [9] 8.52% | activity change, negative = inhibition [10] 33.6% [activator] | activation [11] -18.2%

CCc1ccc(C=O)cc1
inconclusive: Potency [14] 35.6 µM [inhibitor, partial curve]
inactive: Potency [12] | Potency [13] | Potency [7] | Potency [3] | Potency [4] | Potency [5]

CCCCCCCCC(=O)O
inactive: Potency [7] | Potency [17]
inconclusive: Potency [15] 10.9 µM [rising, single point] | activation [8] -4.01% [phenotype inactive] | activation [3] 47.9% | activation [11] -33.8% | activity, negative = inhibition [16] -2.18% | Potency [4] 0.306 µM [falling, partial curve, poor fit] | activity change, negative = inhibition [4] -1.91% | Potency [18] 89.4 µM [inhibitor, single point] | Potency [14] 79.6 µM [inhibitor, partial curve, poor fit]

Cn1c(=O)c2c(ncn2CC(O)CO)n(C)c1=O (centres undefined)
inconclusive: ratio activity, negative = inhibition [1] 8.11% | Potency [19] 18.8 µM [cytotoxic, single point] | activity change, negative = inhibition [10] -24.3% | Potency [3] 0.0043 µM [falling, partial curve, poor fit] | activity, negative = inhibition [16] 12.3% [at 42.5 µM] | Potency [17] 29.8 µM [rising, single point]
inactive: Potency [13] | Potency [15] | Potency [14]

C=Cc1ccc(C=C)cc1
inactive: Potency [16] | Potency [17] | Potency [14]
inconclusive: Potency [19] 0.0301 µM [rising, full curve, poor fit] | activity change, negative = inhibition [10] -0.239% [at 78.8 µM] | activation [3] 4.38% | activity change, negative = inhibition [4] 1.97% | Potency [18] 97.7 µM [inhibitor, single point]
